This note sets out measurements from article PMC4336329 (PLoS ONE, 2015).

About 14,000 (4.5%) of roughly 310,000 compounds showed an effect of 50% or more. The effect is printed as a negative number. Some of the results follow.
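Further: peak tail current of the secondary pulse compared with the same well before compound.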

Chain of human ether-à-go-go-related gene (hERG) potassium channel (Q12809 whole entry, looked up): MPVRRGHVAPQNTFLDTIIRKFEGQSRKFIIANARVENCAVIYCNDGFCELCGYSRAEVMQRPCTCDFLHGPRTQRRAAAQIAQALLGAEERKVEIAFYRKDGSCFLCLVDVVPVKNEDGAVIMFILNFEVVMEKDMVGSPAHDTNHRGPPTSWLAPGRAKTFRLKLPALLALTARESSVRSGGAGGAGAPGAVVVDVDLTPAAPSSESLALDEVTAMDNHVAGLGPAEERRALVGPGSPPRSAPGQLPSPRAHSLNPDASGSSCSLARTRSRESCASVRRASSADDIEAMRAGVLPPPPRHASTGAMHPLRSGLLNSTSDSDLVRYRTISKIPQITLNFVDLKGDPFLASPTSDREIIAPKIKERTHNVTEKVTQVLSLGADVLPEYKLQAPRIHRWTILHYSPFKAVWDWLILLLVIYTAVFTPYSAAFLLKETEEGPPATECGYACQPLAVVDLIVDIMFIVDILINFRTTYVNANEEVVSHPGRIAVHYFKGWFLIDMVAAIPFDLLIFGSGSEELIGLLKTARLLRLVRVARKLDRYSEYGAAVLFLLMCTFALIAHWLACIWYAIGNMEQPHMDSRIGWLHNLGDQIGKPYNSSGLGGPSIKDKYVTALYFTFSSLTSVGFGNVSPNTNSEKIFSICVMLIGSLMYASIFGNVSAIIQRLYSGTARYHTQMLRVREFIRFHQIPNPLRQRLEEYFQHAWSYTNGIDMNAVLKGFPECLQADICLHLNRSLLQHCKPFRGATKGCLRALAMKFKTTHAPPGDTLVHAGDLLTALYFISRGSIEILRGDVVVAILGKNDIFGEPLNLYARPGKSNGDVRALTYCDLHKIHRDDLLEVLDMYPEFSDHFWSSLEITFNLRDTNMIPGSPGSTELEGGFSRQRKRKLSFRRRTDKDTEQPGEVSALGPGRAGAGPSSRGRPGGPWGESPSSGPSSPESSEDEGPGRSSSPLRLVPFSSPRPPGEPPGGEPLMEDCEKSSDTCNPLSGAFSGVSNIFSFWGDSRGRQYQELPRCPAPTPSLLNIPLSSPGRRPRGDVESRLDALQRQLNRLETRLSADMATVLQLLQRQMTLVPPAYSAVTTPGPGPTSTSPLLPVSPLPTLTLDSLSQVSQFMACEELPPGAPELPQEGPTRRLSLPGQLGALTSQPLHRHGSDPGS

This experiment has as its target human ether-à-go-go-related gene (hERG) potassium channel (human, UniProt Q12809). Description: primary screen, population patch clamp on CHO cells stably expressing hERG.
With `CCn1cc(C(=O)NCc2ccco2)c(=O)c2cc(S(=O)(=O)N3CCCC3)ccc21`, the “hERG current change (%, negative = inhibition) at 10uM” value was -4.37%.
In the case of `CCOC(=O)c1cn2nc(-c3ccc(OCC)cc3)cc2nc1C1CCN(C(=O)OC(C)(C)C)CC1`, the “hERG current change (%, negative = inhibition) at 10uM” value worked out at 6.63%.
Turning to `O=C(NC1CCCC1)C(c1ccccn1)N(C(=O)c1csnn1)C1CC1` (stereo not shown), the “hERG current change (%, negative = inhibition) at 10uM” value came to 10.8%.
In the case of `CC(N=Cc1c(O)c2ccccc2oc1=O)C(=O)O` (stereo not shown) it was 15.7%; in that of `COCCCNC(=S)N(CCCO)Cc1cc2cc3c(cc2[nH]c1=O)OCO3`, 16.4%; in that of `O=[N+]([O-])c1ccc(N2CCN(S(=O)(=O)c3ccccc3[N+](=O)[O-])CC2)cc1N1CCc2ccccc2C1`, -2.23%.
On to `CCn1c(-c2ccccc2)c(C(=O)CC#N)c2ccccc21`, for which the “hERG current change (%, negative = inhibition) at 10uM” value is recorded as 15.2%.
Regarding `O=C(CCC1CCCCC1)Nc1c[nH]c(=O)[nH]c1=O`, the “hERG current change (%, negative = inhibition) at 10uM” value is 0.491%.
Regarding `CCOC(=O)c1sc2nc(N3CCOCC3)c3c(c2c1N)CCC3`, the “hERG current change (%, negative = inhibition) at 10uM” value came out at 18.5%.
In the case of `COc1ccc(Cl)cc1S(=O)(=O)NCc1nc2nc(C)cc(C)n2n1`, the “hERG current change (%, negative = inhibition) at 10uM” value came to 14.5%.
Turning to `O=C(Nc1ccc(F)cc1F)c1c(C(F)(F)F)ccnc1Oc1ccc(Cl)cc1`, the “hERG current change (%, negative = inhibition) at 10uM” value came out at 18.4%.
The figure for `CNc1oc(-c2ccccc2)nc1S(=O)(=O)c1ccc(C)cc1` is 12.7%; for `COc1ccc(C)cc1S(=O)(=O)N(CC(=O)NCc1ccc(Cl)cc1)Cc1ccccc1` it is 8.35%.
The figure for `COC(=O)c1ccc(COC(=O)c2ccc(CS(=O)(=O)c3ccc(C)cc3)cc2)cc1` is 22.5%; for `O=P(O)(c1ccc(Cl)cc1)c1ccc(Cl)cc1` it is 4.68%; for `Cc1ccccc1CN1CCCC(C(=O)N2CCCCC2)C1.O=C(O)C(=O)O` (stereo not shown) it is 11.2%.
For the compound `Cc1cc(C(=O)CSc2nn(-c3ccccc3)c(=S)s2)c(C)n1Cc1ccco1`, the “hERG current change (%, negative = inhibition) at 10uM” value is reported as 12%.
Turning to `CC(=O)N(Cc1nc2sc(C)c(C)c2c(=O)[nH]1)C1CCCC1`, the “hERG current change (%, negative = inhibition) at 10uM” value worked out at 21.8%.
With `COc1ccccc1N1CCN(/N=C/c2cccc(OC)c2OC)CC1`, the “hERG current change (%, negative = inhibition) at 10uM” value is on record as 2.89%.
On to `Cc1occc1C(=O)NC1CCCCCC1`, for which the “hERG current change (%, negative = inhibition) at 10uM” value was 6.63%.
As for `COc1ccccc1-n1ccnc1SCC(=O)NCc1ccco1`, the “hERG current change (%, negative = inhibition) at 10uM” value was 7.5%.
`Cc1ccc(C(=O)NC2CCCCC2)cc1S(=O)(=O)N1CCCC1`: the “hERG current change (%, negative = inhibition) at 10uM” value is recorded as -18.5%.
With `CCn1c(SCC(=O)Nc2cc(C)on2)nnc1-c1c[nH]c2ccccc12`, the “hERG current change (%, negative = inhibition) at 10uM” value is -32.7%.
The figure for `CCOC(=O)CNC(=O)c1ccc(SCC)cc1` is 10.2%; for `O=C(CN1CCN(CCC(=O)Nc2ccccc2F)CC1)Nc1ccc(F)cc1` it is -72.6%.
With `COc1ccc(CCNC(=O)c2cccc(NC3=NC4CS(=O)(=O)CC4S3)c2)c(OC)c1` (stereo not shown), the “hERG current change (%, negative = inhibition) at 10uM” value came out at 0.664%.
For the compound `Clc1ccc2c(N3CCOCC3)ccnc2c1`, the “hERG current change (%, negative = inhibition) at 10uM” value is reported as -17.1%.
Turning to `CCCCCCCN1C(Nc2ccccc2)=NC[C@@H]1CC(C)C`, the “hERG current change (%, negative = inhibition) at 10uM” value was -73.7%.
On to `CC(=O)c1ccc(OCCCC(=O)NC2CCCCC2C)cc1` (stereo not shown), for which the “hERG current change (%, negative = inhibition) at 10uM” value worked out at 0.175%.
In the case of `Clc1ss/c(=N\c2ccccn2)c1Cl` it was 11.4%; in that of `O=C(NCCCN1CCOCC1)C1CCC(=O)N1C1CCCCC1` (stereo not shown), -15.9%.
The figure for `COCCNC(=O)C(c1ccc(C)cc1)N(CCOC)C(=O)CCC(=O)Nc1ccccn1` (stereo not shown) is 17.9%.
For `Cc1cc(NC(=O)CSc2nc(C(C)C)nc3ccccc23)no1`, the “hERG current change (%, negative = inhibition) at 10uM” value is on record as -6.59%.
As for `CCN1C(=O)NC2C1N(S(C)(=O)=O)CCN2S(C)(=O)=O` (stereo not shown), the “hERG current change (%, negative = inhibition) at 10uM” value turned out to be 0.265%.
For `CCC(CC)C(=O)Nc1ccc(C(=O)Nc2cc(C)on2)cc1`, the “hERG current change (%, negative = inhibition) at 10uM” value is 2.73%.
For the compound `Cc1ccnc2nc(C(=O)OCC(=O)c3c[nH]c4ccccc34)nn12`, the “hERG current change (%, negative = inhibition) at 10uM” value was 32.1%.
The figure for `CCCC(=O)Nc1c(O)c2ccccc2[nH]c1=O` is 18.3%; for `c1ccc(NC2=Nc3cccc4cccc2c34)cc1` it is 1.71%.
Turning to `CCOC(=O)C1(CC2CCCCO2)CCN(Cc2c(C)cc(C)cc2-n2cccn2)CC1` (stereo not shown), the “hERG current change (%, negative = inhibition) at 10uM” value is listed as -77.8%.
For the compound `Cc1ccc(C(=O)Oc2ccc([N+](=O)[O-])cc2)cc1S(=O)(=O)N1CCCCCC1`, the “hERG current change (%, negative = inhibition) at 10uM” value is on record as 3.24%.
Take `O=C(CCc1ccccc1)Nc1ccc(NC(=O)c2ccco2)cc1`: the “hERG current change (%, negative = inhibition) at 10uM” value amounted to 2.81%.
In the case of `O=C(c1ccccc1Cl)N1CCn2c1nc1ccccc12` it was -2.59%; in that of `CC(C)c1nc(Cl)c(C#N)c2c1CCC2`, 6.65%; in that of `Cl.N=c1c2c(n(Cc3ccc([N+](=O)[O-])cc3)c3c1CCC3)CCCC2`, -14.4%.
With `COc1ccc(N2CC(C(=O)N/N=C/c3cccs3)CC2=O)cc1` (stereo not shown), the “hERG current change (%, negative = inhibition) at 10uM” value is -5.53%.
In the case of `CC1CCCCN1C(=O)CCNS(=O)(=O)c1ccc2c(c1)c(=O)n(C)c(=O)n2C` (stereo not shown) it was -16.9%; in that of `CN1CCN(C(=O)/C=C/c2ccc([N+](=O)[O-])cc2)CC1`, -67%; in that of `Cc1ccc(NS(=O)(=O)c2ccc(CCC(=O)NC3CC3)cc2)cc1`, 0.354%.
Turning to `CC(NC(=O)c1ccc(=O)oc1)c1ccccc1` (stereo not shown), the “hERG current change (%, negative = inhibition) at 10uM” value is on record as -2.11%.
For `COc1ccc(OC)c(CCNC(=O)C(=O)Nc2ccc3nc4n(c(=O)c3c2)CCCCC4)c1`, the “hERG current change (%, negative = inhibition) at 10uM” value is -19.1%.
Take `Cc1cccc(C(=O)NCC(=O)OCC(=O)c2ccc(Cl)s2)c1`: the “hERG current change (%, negative = inhibition) at 10uM” value is listed as -15.5%.
In the case of `COc1ccc(N(CC(=O)NCc2ccco2)C(=O)CCC(=O)Nc2nccs2)c(OC)c1`, the “hERG current change (%, negative = inhibition) at 10uM” value is listed as -18.2%.
Regarding `CC(C)c1ccc(NC(=O)c2cccc(Br)c2)cc1`, the “hERG current change (%, negative = inhibition) at 10uM” value worked out at 20.6%.
On to `COc1cc2[nH]c(=O)n(Cc3ccc(C(=O)N4CCC(N5CCCCC5)CC4)cc3)c(=O)c2cc1OC`, for which the “hERG current change (%, negative = inhibition) at 10uM” value is 12.3%.
On to `Cc1ccc(C)c(OCCN2CCOCC2)c1`, for which the “hERG current change (%, negative = inhibition) at 10uM” value is given as 11.6%.
Regarding `COc1cccc(-c2nn(-c3ccc(C)cc3)cc2C(=O)NCC(c2cccs2)N2CCOCC2)c1` (stereo not shown), the “hERG current change (%, negative = inhibition) at 10uM” value is reported as 5.13%.
In the case of `CC(=O)c1ccc(OCCCC(=O)NC2CCCc3ccccc32)cc1` (stereo not shown) it was -13.8%.
As to `CC(C)(C)c1ccc(-c2c(C#N)c(N)nc3c2CCCC3)s1`, the “hERG current change (%, negative = inhibition) at 10uM” value is -0.863%.
For `O=C(O)c1ccccc1CSc1nc2ccccc2s1`, the “hERG current change (%, negative = inhibition) at 10uM” value is given as 20.1%.
Turning to `CCCN1C(=O)SC(CC(=O)Nc2ccccc2C)C1=O` (stereo not shown), the “hERG current change (%, negative = inhibition) at 10uM” value was found to be 2.91%.
Take `COc1ccc(CCNc2cc(N3CCN(C(=O)c4ccccc4F)CC3)ccc2[N+](=O)[O-])cc1OC`: the “hERG current change (%, negative = inhibition) at 10uM” value turned out to be 16.3%.
As to `CCOc1ccccc1/C=N/NC(=O)CSc1n[nH]c(=O)[nH]c1=O`, the “hERG current change (%, negative = inhibition) at 10uM” value is 27.5%.
As to `COc1ccc2nc(NC(=O)c3ccc(NC(=O)C4CCCO4)cc3)sc2c1` (stereo not shown), the “hERG current change (%, negative = inhibition) at 10uM” value worked out at 12.5%.
Turning to `CN1CCCN(C(=O)c2ccc(Cl)s2)CC1`, the “hERG current change (%, negative = inhibition) at 10uM” value is -93.3%.
The figure for `CCOC(=O)C1(Cc2cccc(F)c2)CCN(Cc2cnn(CC)c2C)CC1` is -16.6%; for `CCCN1C(=O)c2[nH]nc(-c3cc(Cl)c(C)cc3O)c2C1c1ccc(O)c(OC)c1` (stereo not shown) it is 3.51%; for `COC(=O)c1c(C)[nH]c(C(=O)OCC(=O)NC(C)(C)C)c1C` it is 20.2%.
In the case of `CC(=O)OCCc1c(C)nc2nc[nH]n2c1=O` it was 16.3%; in that of `CNS(=O)(=O)c1ccc(OC)c(-c2nnc3c4ccccc4c(C)nn23)c1.Cl`, 7.8%; in that of `CCOC(=O)/C(C#N)=C/c1c(N2CCN(c3ccccc3)CC2)nc2c(C)cccn2c1=O`, 5.87%.
As for `O=c1c2ccccc2nnn1CSc1nnc2sc3ccccc3n12`, the “hERG current change (%, negative = inhibition) at 10uM” value is on record as -5.58%.
On to `CCOc1ccc(/C(CCC(=O)O)=N/NC(=S)NC(C)C)cc1`, for which the “hERG current change (%, negative = inhibition) at 10uM” value amounted to 14.1%.
As to `CN(C(=O)COc1cc(=O)n(C)c2ccccc12)c1ccc(Br)cc1`, the “hERG current change (%, negative = inhibition) at 10uM” value is -11.2%.
In the case of `Cc1ccc(/C=N/NC(=O)c2ccc(NC(=O)c3ccccc3Cl)cc2)o1` it was 4.34%; in that of `COc1ccc(C2=NS(=O)(=O)N(C)C(C(=O)N3CCC4(CC3)OCCO4)=C2)cc1OC`, 14.6%.
`Cc1ccc2c(c1)c1nnc(SCC(=O)N3CCN(c4ccc(F)cc4)CC3)nc1n2CC(=O)O`: the “hERG current change (%, negative = inhibition) at 10uM” value is given as -63.1%.
With `N#C/C(=C/c1ccc(N2CCOCC2)o1)C(=O)N1CCOCC1`, the “hERG current change (%, negative = inhibition) at 10uM” value was determined as 17.5%.
For the compound `COc1ccccc1NC(=O)C1CCCN(S(=O)(=O)c2ccc(-n3cnnn3)cc2)C1` (stereo not shown), the “hERG current change (%, negative = inhibition) at 10uM” value is given as -46.8%.
In the case of `CCN(CC)c1ccc(/C=N/NC(=O)c2cccc(N3CCCC3=O)c2)cc1` it was -11.9%; in that of `Cc1cc2nc(-c3cccc(NC(=O)c4ccc(Br)o4)c3C)oc2cc1C`, 5.67%.
Regarding `O=C(Nc1cc(S(=O)(=O)N2CCOCC2)ccc1Cl)C1CCC1`, the “hERG current change (%, negative = inhibition) at 10uM” value is on record as 6.14%.
On to `Cc1ccccc1CS(=O)(=O)Cc1ccc(C(=O)NC2CCCCC2)o1`, for which the “hERG current change (%, negative = inhibition) at 10uM” value is on record as -11.2%.
For the compound `COc1ccc(NC(=O)COc2ccc(-c3nn(C)c(=O)c4ccccc34)cc2)cc1`, the “hERG current change (%, negative = inhibition) at 10uM” value was 18.2%.
In the case of `Cc1ccc(OCC(=O)Nc2ccc(N3CCN(S(C)(=O)=O)CC3)cc2)cc1C` it was 12.6%.
`O=C(CNC(=O)c1cc(S(=O)(=O)N2CCCCC2)ccc1N1CCOCC1)Nc1ccc(F)c(F)c1`: the “hERG current change (%, negative = inhibition) at 10uM” value turned out to be 23.7%.
Turning to `CCCC(O)(c1ccc(Br)cc1)C(CN1CCOCC1)c1ccc(Cl)cc1.Cl` (stereo not shown), the “hERG current change (%, negative = inhibition) at 10uM” value was found to be 7.96%.
Consider `CC(C)C(=O)Nc1cccc(C(=O)Nc2ccc(S(=O)(=O)N3CCOCC3)cc2)c1`, for which the “hERG current change (%, negative = inhibition) at 10uM” value is reported as -9.39%.
Take `CCC(C)c1ccc(NC(=S)N2CCCC2)cc1` (stereo not shown): the “hERG current change (%, negative = inhibition) at 10uM” value was found to be 1.86%.
